{
  "source": "the supplement of paper PMC8728848",
  "binders": {"B1": {"name": "Gal 8 (Homo sapiens) (protein)", "chain": "MLSLNNLQNIIYNPVIPYVGTIPDQLDPGTLIVICGHVPSDADRFQVDLQNGSSVKPRADVAFHFNPRFKRAGCIVCNTLINEKWGREEITYDTPFKREKSFEIVIMVLKDKFQVAVNGKHTLLYGHRIGPEKIDTLGIYGKVNIHSIGFSFSSDLQSTQASSLELTEISRENVPKSGTPQLQTVSPSWDLQGHGSETFCSVLWTRVFLEIAFCRPIGLTVASFQSLPFAARLNTPMGPGRTVVVKGEVNANAKSFNVDLLAGKSKDIALHLNPRLNIKAFVRNSFLQESWGEEERNITSFPFSPGMYFEMIIYCDVREFKVAVNGVHSLEYKHRFKELSSIDTLEINGDIHLLEVRSW"}},
  "test_in_all_cases": "glycan array binding signal (z-score within array); higher = stronger binding",
  "details_in_all_cases": "glycan notation: IUPAC condensed, linker removed",
  "key": {"[1]": {"target": "GlcNAc(a1-3)Gal(b1-4)GlcNAc", "in_short": "(§1)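 From the Consortium for Functional Glycomics database, 3228 arrays were curated, keeping only those whose protein sequence was available. Binding is given as a within-array Z-score averaged across arrays sharing a protein sequence and across linkers. Negative Z-scores can be read as non-binding.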"}, "[2]": {"target": "GlcNAc(a1-4)Gal(b1-3)GlcNAc", "in_short": "as §1"}, "[3]": {"target": "GlcNAc(a1-4)Gal(b1-4)GalNAc", "in_short": "as §1"}, "[4]": {"target": "GlcNAc(a1-4)Gal(b1-4)GlcNAc", "in_short": "as §1"}, "[5]": {"target": "GlcNAc(a1-4)Gal(b1-4)GlcNAc(b1-3)Gal(b1-4)Glc", "in_short": "as §1"}, "[6]": {"target": "GlcNAc(a1-4)Gal(b1-4)GlcNAc(b1-3)Gal(b1-4)GlcNAc", "in_short": "as §1"}, "[7]": {"target": "GlcNAc(a1-4)Gal(b1-4)GlcNAc(b1-3)Gal(b1-4)GlcNAc(b1-3)Gal(b1-4)GlcNAc", "in_short": "as §1"}, "[8]": {"target": "GlcNAc(a1-4)Gal(b1-4)GlcNAc(b1-3)Gal(b1-4)[Fuc(a1-3)]GlcNAc(b1-3)Gal(b1-4)[Fuc(a1-3)]GlcNAc", "in_short": "as §1"}, "[9]": {"target": "GlcNAc(a1-6)Gal(b1-4)GlcNAc", "in_short": "as §1"}, "[10]": {"target": "GlcNAc(b1-2)Gal(b1-3)GalNAc", "in_short": "as §1"}, "[11]": {"target": "GlcNAc(b1-2)Man(a1-3)[GlcNAc(b1-2)Man(a1-6)]Man(b1-4)GlcNAc(b1-4)GlcNAc", "in_short": "as §1"}, "[12]": {"target": "GlcNAc(b1-2)Man(a1-3)[GlcNAc(b1-2)Man(a1-6)]Man(b1-4)GlcNAc(b1-4)[Fuc(a1-6)]GlcNAc", "in_short": "as §1"}, "[13]": {"target": "GlcNAc(b1-2)Man(a1-3)[GlcNAc(b1-4)][GlcNAc(b1-2)Man(a1-6)]Man(b1-4)GlcNAc(b1-4)GlcNAc", "in_short": "as §1"}, "[14]": {"target": "GlcNAc(b1-2)Man(a1-3)[GlcNAc(b1-4)][GlcNAc(b1-2)Man(a1-6)]Man(b1-4)GlcNAc(b1-4)[Fuc(a1-6)]GlcNAc", "in_short": "as §1"}, "[15]": {"target": "GlcNAc(b1-2)[GlcNAc(b1-4)]Man(a1-3)[GlcNAc(b1-2)Man(a1-6)]Man(b1-4)GlcNAc(b1-4)GlcNAc", "in_short": "as §1"}, "[16]": {"target": "GlcNAc(b1-2)[GlcNAc(b1-4)]Man(a1-3)[GlcNAc(b1-4)][GlcNAc(b1-2)Man(a1-6)]Man(b1-4)GlcNAc(b1-4)GlcNAc", "in_short": "as §1"}, "[17]": {"target": "GlcNAc(b1-2)[GlcNAc(b1-4)]Man(a1-3)[GlcNAc(b1-4)][GlcNAc(b1-2)[GlcNAc(b1-6)]Man(a1-6)]Man(b1-4)GlcNAc(b1-4)GlcNAc", "in_short": "as §1"}, "[18]": {"target": "GlcNAc(b1-2)[GlcNAc(b1-4)]Man(a1-3)[GlcNAc(b1-4)][GlcNAc(b1-2)[GlcNAc(b1-6)]Man(a1-6)]Man(b1-4)GlcNAc(b1-4)[Fuc(a1-6)]GlcNAc", "in_short": "as §1"}, "[19]": {"target": "GlcNAc(b1-2)[GlcNAc(b1-6)]Man(a1-6)[GlcNAc(b1-2)Man(a1-3)]Man(b1-4)GlcNAc(b1-4)GlcNAc", "in_short": "as §1"}, "[20]": {"target": "GlcNAc(b1-2)[GlcNAc(b1-6)]Man(a1-6)[GlcNAc(b1-2)Man(a1-3)]Man(b1-4)GlcNAc(b1-4)[Fuc(a1-6)]GlcNAc", "in_short": "as §1"}, "[21]": {"target": "GlcNAc(b1-2)[GlcNAc(b1-6)]Man(a1-6)[GlcNAc(b1-4)][GlcNAc(b1-2)Man(a1-3)]Man(b1-4)GlcNAc(b1-4)GlcNAc", "in_short": "as §1"}, "GlcNAc(b1-3)Fuc": {"target": "GlcNAc(b1-3)Fuc", "in_short": "as §1"}},
  "note": "The other results are listed elsewhere or left out.",
  "data": [
    {"binder": "B1", "values": [
      {"measurement": "glycan array binding signal (z-score)", "setting": "[1]", "value": -0.345},
      {"measurement": "glycan array binding signal (z-score)", "setting": "[2]", "value": -0.357},
      {"measurement": "glycan array binding signal (z-score)", "setting": "[3]", "value": -0.357},
      {"measurement": "glycan array binding signal (z-score)", "setting": "[4]", "value": -0.357},
      {"measurement": "glycan array binding signal (z-score)", "setting": "[5]", "value": 0.419},
      {"measurement": "glycan array binding signal (z-score)", "setting": "[6]", "value": 0.138},
      {"measurement": "glycan array binding signal (z-score)", "setting": "[7]", "value": 0.82},
      {"measurement": "glycan array binding signal (z-score)", "setting": "[8]", "value": -0.35},
      {"measurement": "glycan array binding signal (z-score)", "setting": "[9]", "value": -0.348},
      {"measurement": "glycan array binding signal (z-score)", "setting": "[10]", "value": -0.236},
      {"measurement": "glycan array binding signal (z-score)", "setting": "[11]", "value": -0.47},
      {"measurement": "glycan array binding signal (z-score)", "setting": "[12]", "value": -0.356},
      {"measurement": "glycan array binding signal (z-score)", "setting": "[13]", "value": -0.354},
      {"measurement": "glycan array binding signal (z-score)", "setting": "[14]", "value": -0.355},
      {"measurement": "glycan array binding signal (z-score)", "setting": "[15]", "value": -0.354},
      {"measurement": "glycan array binding signal (z-score)", "setting": "[16]", "value": -0.357},
      {"measurement": "glycan array binding signal (z-score)", "setting": "[17]", "value": -0.356},
      {"measurement": "glycan array binding signal (z-score)", "setting": "[18]", "value": -0.356},
      {"measurement": "glycan array binding signal (z-score)", "setting": "[19]", "value": -0.353},
      {"measurement": "glycan array binding signal (z-score)", "setting": "[20]", "value": -0.356},
      {"measurement": "glycan array binding signal (z-score)", "setting": "[21]", "value": -0.355},
      {"measurement": "glycan array binding signal (z-score)", "setting": "GlcNAc(b1-3)Fuc", "value": -0.356}
    ]}
  ]
}
